Measurements as given in PubChem BioAssay AID485281 (National Center for Advancing Translational Sciences (NCATS), 2010).
The campaign covered roughly 350,000 compounds. About 260 (0.074%) were called active. Inconclusive results, whose numbers are uncertain, are shown with a selection of clear calls. The call rests on the fitted dose curve; in most records, active means well fitted inhibition curve with a large enough effect; inconclusive means small, poorly fitted or top-dose-only effect; inactive means no such curve, though single readings can be large or run the other way. Potencies beside an inconclusive call are fits to weak or partial responses and may not hold up.

biological target: Ferritin light chain (Equus caballus) (UniProt P02791); assay: qHTS Assay for Identification of Novel General Anesthetics; conditions: apoferritin/1-aminoanthracene competitive binding, fluorescence; activity change, negative = displacement: at 77.5 µM (top of the series); further: nearly all actives have a fitted effect of over 20% in size
In short: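 Apoferritin-based anesthetic binding model; compound displacement of fluorescent 1-AMA measured as endpoint fluorescence after 10 minutes at room temperature, scaled to free-ligand and complex controls.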
On the % scale 0 is the no-effect control and ±100 the full control effect; potency means the concentration at half of the fitted maximal effect; tags describe the fitted curve by direction and shape.

Chain of UniProt P02791 (P02791 whole entry, looked up): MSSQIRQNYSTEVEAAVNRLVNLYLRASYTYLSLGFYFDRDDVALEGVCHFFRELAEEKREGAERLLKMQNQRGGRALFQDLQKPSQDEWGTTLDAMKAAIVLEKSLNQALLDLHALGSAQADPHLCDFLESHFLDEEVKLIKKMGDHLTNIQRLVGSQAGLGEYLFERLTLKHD

| SMILES | activity change, negative = displacement | Potency |
| --- | --- | --- |
| CCC1Sc2ccc(S(=O)(=O)CCC(=O)NCc3ccc(C)o3)cc2NC1=O (stereo not given) | inactive: -14% | – |
| CCc1ccc(C(=O)CSc2nc(-c3ccccc3)nc3c2CCCC3)cc1 | inactive: -14% | – |
| Cc1cccc(C(=O)O/N=C2/CC3CCC2(C)C3(C)C)c1 (stereo not given) | – | inconclusive: 15.8 µM [inhibitor, partial curve] |
| COc1cc(CN2CCCC(C(=O)c3ccc(C(C)(C)C)cc3)C2)cc(OC)c1O (stereo not given) | – | inconclusive: 35.5 µM [inhibitor, single point] |
| Fc1ccc(-n2cc(CNCCc3cccnc3)c(-c3ccccc3Cl)n2)cc1 | inactive: -4.72% | – |
| Cc1ccc(NC(=O)c2nccnc2C(=O)O)cc1C | inactive: -2.68% | – |
| O=C(CNC(=O)c1cccs1)N/N=C/c1cccc(Br)c1 | – | inconclusive: 14.1 µM [inhibitor, partial curve] |
| CCOC(=O)CSc1nnc(-c2cccc(Br)c2)o1 | – | inconclusive: 31.6 µM [inhibitor, partial curve] |
| c1ccc(COc2ccccc2CNCc2cccnc2)cc1 | – | inconclusive: 31.6 µM [inhibitor, single point] |
| CC(=O)Nc1ccc(NC(=O)c2nc(SCc3ccccc3C)ncc2Cl)cc1 | – | inconclusive: 15.8 µM [inhibitor, partial curve] |
| c1ncc(CCCC2CCNCC2)[nH]1 | inactive: -11.1% | – |
| COc1ccc(-c2cc3c(=O)n(CC(=O)Nc4cc(C)ccc4C)ccn3n2)cc1 | inactive: 51.2% | – |
| Cc1ccc(NC(=O)N2CCC(C(=O)NCc3ccccc3)CC2)cc1 | inactive: 1.75% | – |
| N#CC1=C(N)C(C#N)(C#N)C(c2ccncc2)C2CN(C(=O)OCc3ccccc3)CC=C12 (stereo not given) | inactive: 3.02% | – |
| CCOc1ccc(-c2nnc(SCC(=O)c3ccc(F)cc3)n2-c2ccccc2)cc1 | – | inconclusive: 5.62 µM [inhibitor, partial curve] |
| CSc1ccc(Cn2nnc(C(=O)NCc3ccccc3)c2N)cc1 | – | inconclusive: 31.6 µM [inhibitor, single point] |
| Cc1ccc(Cn2ccnc2SCC(=O)Nc2ccc3c(c2)OCCO3)cc1 | – | inconclusive: 25.1 µM [inhibitor, partial curve] |
| C=CCS(=O)(=O)N1CCCC(C(=O)c2cccc(Cl)c2)C1 (stereo not given) | – | inconclusive: 20 µM [inhibitor, partial curve] |
| Cc1ncc(CN2CCCC(C(=O)Nc3ccc(-c4cccc(F)c4)cc3)C2)cn1 (stereo not given) | – | inconclusive: 31.6 µM [inhibitor, single point] |
| O=C(NCCSCc1c(F)cccc1Cl)c1ccco1 | – | inconclusive: 22.4 µM [inhibitor, partial curve] |
| Cc1cc(O)c(C(=O)/C=C/c2ccccc2Br)c(=O)o1 | – | inconclusive: 39.8 µM [inhibitor, single point] |
| NS(=O)(=O)c1ccc(NC(=O)Cn2ncc3c2-c2ccccc2OC3)cc1 | inactive: 6.05% | – |
| N#Cc1ccc2c(c1)C[C@]1(CCCCN3C(=O)c4ccccc4C3=O)Oc3cc(-c4ccccc4)oc(=O)c3[C@H]2O1 | inactive: -19.9% [at 15.3 µM] | – |
| CCOC(=O)N1CCC(NC(=O)CC(NS(=O)(=O)c2ccc(Cl)cc2)c2ccco2)CC1 (stereo not given) | inactive: -2.74% | – |

| SMILES | activity change, negative = displacement | Potency |
| --- | --- | --- |
| O=c1oc2ccccc2cc1NCc1ccccc1O | – | inconclusive: 25.1 µM [inhibitor, single point] |
| COC(=O)C1=CC(C(=O)c2cccs2)=NN(c2ccc(OC)cc2)C1C(=O)OC (stereo not given) | inactive: -17% | – |
| CCN(c1ccccc1)S(=O)(=O)c1ccc(OC)c(NC(=O)CN(C)C)c1 | inactive: -6.2% | – |
| Cc1cc(N/N=C/c2ccccc2F)c2ccccc2n1 | – | inconclusive: 11.2 µM [inhibitor, partial curve] |
| Cc1cc(-c2ccc(S(=O)(=O)N(C)c3ccc(C)c(C)c3)s2)on1 | – | inconclusive: 20 µM [inhibitor, partial curve] |
| CNCCCOc1ccc(C(C)(C)c2ccccc2)cc1 | – | inconclusive: 12.6 µM [inhibitor, partial curve] |
| CCCCCOc1ccc(CSC2=NCCN2)cc1[N+](=O)[O-] | – | inconclusive: 35.5 µM [inhibitor, single point] |
| N#Cc1c(-c2cccs2)nc(SCC(=O)c2ccc(Br)cc2)[nH]c1=O | – | inconclusive: 28.2 µM [inhibitor, partial curve] |
| CC(=O)Nc1ccc(N(C)C)cc1[N+](=O)[O-] | – | inconclusive: 39.8 µM [inhibitor, single point] |
| CCC(C(=O)N1CCN(c2ccccc2)CC1)n1nc(C)n2c(cc3sccc32)c1=O (stereo not given) | inactive: -10.5% | – |
| COc1cccc(C2CC(c3cccs3)=NN2C(=O)CSc2nc3ccccc3o2)c1OC (stereo not given) | inactive: -9.43% | – |
| CC(=O)NC1=NN(C(C)=O)C(C)(c2ccco2)S1 (stereo not given) | – | inconclusive: 35.5 µM [inhibitor, partial curve] |
| Cc1ccc(C(=O)NCC(=O)N/N=C/c2cccs2)cc1C | – | inconclusive: 4.47 µM [inhibitor, full curve] |
| O=C(c1ccc2c(c1)OCO2)C1CCCN(Cc2cn[nH]c2-c2cccc(F)c2)C1 (stereo not given) | – | inconclusive: 22.4 µM [inhibitor, partial curve] |
| Cc1cccc(NC(=O)C2CCN(S(=O)(=O)c3cccs3)CC2)c1 | – | inconclusive: 50.1 µM [inhibitor, single point] |
| Cn1c(=O)oc2cc(S(=O)(=O)CCC(=O)N3CCN(c4ccccc4)CC3)ccc21 | – | inactive |
| COC(=O)c1cc(N=Nc2sc(N)nc2C)cc(C(=O)OC)c1 | inactive: -3.56% | – |
| CCOc1cc(N2CCOCC2)c(OCC)cc1NC(=O)COc1cccc2cccnc12 | – | inconclusive: 35.5 µM [inhibitor, partial curve] |
| Cc1cc(=O)n(CC=C(Cl)Cl)c2ccccc12 | – | inconclusive: 25.1 µM [inhibitor, partial curve] |
| O=C(Nc1cccc([N+](=O)[O-])c1)N1CCCCCC1 | – | inconclusive: 50.1 µM [inhibitor, single point] |
| CC(C)(C)c1ccc(NC(=O)CSc2n[nH]c(=O)n2-c2cccnc2)cc1 | – | inconclusive: 39.8 µM [inhibitor, single point] |
| Cc1ccc(OCC(=O)Nc2ccc(N(C)C)cc2)cc1 | inactive: -15.4% | – |
| Clc1cccc(-c2nc(NCCCN3CCOCC3)c3ccccc3n2)c1 | – | inconclusive: 31.6 µM [inhibitor, partial curve] |
| Cc1c(Cl)ccc2c(C(=O)NCCN3CCCCC3)cc(-c3ccccn3)nc12 | – | inconclusive: 12.6 µM [inhibitor, partial curve] |

| SMILES | activity change, negative = displacement | Potency |
| --- | --- | --- |
| CN1CCN(c2ccccc2NC(=O)c2cccc(OCc3ccccc3)c2)CC1 | – | inconclusive: 25.1 µM [inhibitor, single point] |
| N#CC(c1ccc(Cl)cc1)(c1ncc(C(F)(F)F)cc1Cl)N1CCOCC1 (stereo not given) | – | inconclusive: 39.8 µM [inhibitor, partial curve] |
| COc1ccc(C2CC(=O)Oc3c(C(CCN4CCCC(C)C4)c4cc(OC)c(OC)c(OC)c4)c(OC)cc(OC)c32)cc1 (stereo not given) | – | inconclusive: 28.2 µM [inhibitor, partial curve] |
| COC(=O)c1ccc(-c2noc(CN(C)CCC3CCCCO3)n2)cc1 (stereo not given) | – | inconclusive: 28.2 µM [inhibitor, partial curve] |
| COc1ccc2c(c1)cc(C(=O)N[C@H](C(=O)N1CCC(C(=O)O)CC1)C(C)C)n2C | inactive: 3.91% | – |
| O=C(Cc1ccc(F)cc1)NC1CC(=O)N(c2ccccc2)C1 (stereo not given) | inactive: -3.07% | – |
| COC(=O)C1=C(C)N(Cc2ccc(C)cc2)C(=O)/C1=C\c1ccc(O)c(OC)c1 | – | inconclusive: 39.8 µM [inhibitor, partial curve] |
| O=C(CCNc1ccccc1)c1ccc2c(c1)OCO2 | – | inconclusive: 35.5 µM [inhibitor, single point] |
| O=C(Cc1cccs1)N1CCN(S(=O)(=O)c2ccc(Br)cc2)CC1 | inactive: -17.9% | – |
| COc1ccccc1-c1ccc(SCc2cccc(F)c2)nn1 | – | inconclusive: 28.2 µM [inhibitor, partial curve] |
| O=C1OC(c2ccccc2)c2ccccc21 (stereo not given) | – | inconclusive: 22.4 µM [inhibitor, partial curve] |
| CCC(C)n1c(SCC(=O)Nc2cc(C)on2)nc2ccccc2c1=O (stereo not given) | – | inconclusive: 28.2 µM [inhibitor, single point] |
| CCCOc1ccc(-c2nnn(CC(=O)N3CCC(C)CC3)n2)cc1 | – | inconclusive: 39.8 µM [inhibitor, partial curve] |
| CC(C)(C)C1(O)CC(C(F)(F)F)=NN1C(=O)Cc1ccc([N+](=O)[O-])cc1 (stereo not given) | – | inconclusive: 14.1 µM [inhibitor, partial curve] |
| CC(C)NC(=O)NC(=O)COC(=O)c1cc(S(=O)(=O)N2CCCCC2)ccc1N1CCOCC1 | – | inconclusive: 12.6 µM [inhibitor, partial curve] |
| COc1cccc(/C=N\NC(=O)c2ccc(Cn3cc(Br)c([N+](=O)[O-])n3)o2)c1O | – | inconclusive: 14.1 µM [inhibitor, partial curve] |
| Brc1cc(Br)c2ncnc(N3CCCCC3)c2c1 | – | inconclusive: 44.7 µM [inhibitor, single point] |
| Cc1cc(N2CCN(c3ccc([N+](=O)[O-])c4cccnc34)CC2)c2ccccc2n1 | inactive: -11.5% | – |
| COc1ccc(C(=O)Nc2ccc(C(=O)N3CCCC3)cc2)cc1[N+](=O)[O-] | – | inconclusive: 35.5 µM [inhibitor, single point] |
| Cc1cc2cc(CNS(=O)(=O)c3ccccc3)ccc2n1C | inactive: -22% | – |
| CCN(CC(=O)Nc1ccc2c(c1)OCCO2)S(=O)(=O)c1cccs1 | – | inconclusive: 31.6 µM [inhibitor, single point] |
| Cn1c(NNC(=O)CCC2CCCCC2)cc(=O)n(C)c1=O | inactive: -6.1% | – |
